From PubChem BioAssay AID504332 (National Center for Advancing Translational Sciences (NCATS), 2011)
Among all 350,000 compounds or so, about 31,000 (8.9%) were called active. The inconclusive results got no clear call from the source; some entries with a clear call stand among them for comparison. Calls follow the shape of the dose curve; as a rule, active = well fitted inhibition curve with a large enough effect; inconclusive = small, poorly fitted or top-dose-only effect; inactive = no such curve, though single readings can be large or run the other way. Potencies of inconclusive entries are doubtful fits and often do not repeat.

Target: Histone-lysine N-methyltransferase EHMT2 (Homo sapiens) (UniProt Q96KQ7)
Assay: qHTS Assay for Inhibitors of Histone Lysine Methyltransferase G9a; also: nearly all actives have a fitted effect of over 75% in size
Conditions: G9a H3K9 monomethylation, AlphaScreen, 2 h; activity, negative = inhibition: at 59 µM (top of the series) unless noted
Procedure, shortened: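 G9a (20 nM) preincubated 15 min RT with compounds, then 500 nM biotinylated H3K9 peptide and 20 uM SAM added; 2 h RT reaction. Monomethyl-H3K9 product detected by AlphaScreen with anti-H3K9me1 antibody, streptavidin donor and anti-rabbit IgG acceptor beads.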
% is scaled to controls: 0 for no effect and ±100 for the full control effect; potency is read from the fitted curve at half-maximal effect; tags tell the direction and shape of the fitted curve.

Sequence of UniProt Q96KQ7 (Q96KQ7 whole entry, looked up): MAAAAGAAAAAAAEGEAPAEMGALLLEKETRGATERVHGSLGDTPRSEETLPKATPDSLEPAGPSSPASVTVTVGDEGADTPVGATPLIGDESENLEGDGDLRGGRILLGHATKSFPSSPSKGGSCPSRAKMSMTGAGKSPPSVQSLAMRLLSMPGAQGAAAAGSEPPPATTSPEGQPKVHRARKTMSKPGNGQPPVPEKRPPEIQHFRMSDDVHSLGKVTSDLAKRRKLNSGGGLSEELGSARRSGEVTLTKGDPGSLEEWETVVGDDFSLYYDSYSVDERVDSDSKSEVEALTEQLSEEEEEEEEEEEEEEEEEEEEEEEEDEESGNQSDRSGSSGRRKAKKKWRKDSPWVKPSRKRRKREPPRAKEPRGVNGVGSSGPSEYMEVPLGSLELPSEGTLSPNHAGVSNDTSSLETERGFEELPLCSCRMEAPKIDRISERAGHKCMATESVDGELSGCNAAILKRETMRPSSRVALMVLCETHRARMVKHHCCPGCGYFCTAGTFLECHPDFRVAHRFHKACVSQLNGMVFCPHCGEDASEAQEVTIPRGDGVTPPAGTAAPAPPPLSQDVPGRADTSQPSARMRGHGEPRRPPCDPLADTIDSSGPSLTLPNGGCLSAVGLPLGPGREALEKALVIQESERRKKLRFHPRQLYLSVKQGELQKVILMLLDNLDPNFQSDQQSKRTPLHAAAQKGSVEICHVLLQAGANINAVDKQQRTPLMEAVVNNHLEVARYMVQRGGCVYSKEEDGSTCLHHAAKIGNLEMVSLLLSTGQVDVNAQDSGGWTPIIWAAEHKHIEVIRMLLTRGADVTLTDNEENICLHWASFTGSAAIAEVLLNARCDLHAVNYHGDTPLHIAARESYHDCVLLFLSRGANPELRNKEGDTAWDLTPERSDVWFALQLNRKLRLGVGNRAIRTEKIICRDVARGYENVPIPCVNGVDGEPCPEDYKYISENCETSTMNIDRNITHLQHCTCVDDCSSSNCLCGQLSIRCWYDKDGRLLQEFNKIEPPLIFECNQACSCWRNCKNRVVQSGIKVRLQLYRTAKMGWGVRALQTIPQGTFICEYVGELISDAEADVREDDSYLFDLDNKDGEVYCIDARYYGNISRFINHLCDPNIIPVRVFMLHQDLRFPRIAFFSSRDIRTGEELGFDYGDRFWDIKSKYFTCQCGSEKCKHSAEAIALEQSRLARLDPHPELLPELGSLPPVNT

Row | SMILES | activity, negative = inhibition | Potency
1 | c1ccc(-c2noc(CN3CCN(c4ccccc4)CC3)n2)cc1 | inactive: -8.53% [at 102 µM] | –
2 | COC(=O)c1ccc(NC(=O)COC(=O)C2CCC2)cc1 | inactive: -0.433% [at 102 µM] | –
3 | CCCOc1ccc(C(=O)Nc2c(C(=O)c3ccc(C)cc3)oc3ccccc23)cc1 | inactive: 4.9% | –
4 | CCN(CC)CCNC(=O)c1cc2ccccc2nc1Cl | – | inconclusive: 79.4 µM [inhibitor, partial curve, poor fit]
5 | CCN(CC(=O)Nc1c(F)cccc1F)C(=O)CSc1ccc(F)cc1 | – | inconclusive: 79.4 µM [inhibitor, partial curve, poor fit]
6 | Cc1ccc(-c2csc(N/N=C/c3ccco3)n2)cc1 | – | inconclusive: 8.91 µM [inhibitor, single point]
7 | C#CCOCCOCCOCCNc1nc(N2CCN(C(=O)Cn3cc(CCO)nn3)CC2)nc(N2CCN(C(=O)[C@H](C(C)C)n3cc(CCO)nn3)CC2)n1 | – | active: 44.7 µM
8 | CCc1ccc(NC(=O)c2ccc3c(c2)C(=O)N(Cc2ccco2)C3=O)cc1 | – | active: 50.1 µM
9 | COc1ccc(-c2cc3ccccc3n2CC(O)CN2CCC(C)CC2)cc1 (stereo not given) | – | inconclusive: 50.1 µM [inhibitor, partial curve, poor fit]
10 | COc1ccc(NC(=O)CN2C(=O)NC3(CCCC3)C2=O)c(OC)c1 | inactive: 42.2% [at 102 µM] | –
11 | Cc1sc2ncnc(N3CCC(C(=O)N(CC(C)C)c4nc5ccccc5s4)CC3)c2c1C | – | inconclusive: 50.1 µM [inhibitor, partial curve, poor fit]
12 | COc1ccc2nccc(C(N)=O)c2c1 | inactive: -3.36% [at 102 µM] | –
13 | Cc1nn(S(=O)(=O)c2cccc([N+](=O)[O-])c2)c(C)c1S(=O)(=O)N1CCOCC1 | inactive: -4.28% | –
14 | Cn1c(N)c(C(=O)COC(=O)Cc2ccc(Cl)cc2Cl)c(=O)n(C)c1=O | – | inconclusive: 35.5 µM [inhibitor, partial curve, poor fit]
15 | Cc1ccccc1C(=O)NCCOc1ccccc1Cl | inactive: -2.63% [at 0.501 µM] | –
16 | Cc1nnc(SCC(=O)N2CCN(S(=O)(=O)c3ccc(Cl)cc3)CC2)[nH]c1=O | – | inconclusive: 39.8 µM [inhibitor, single point]
17 | Cc1cccc(NC(=O)CSc2nc(=O)n3ccccc3n2)c1C | inactive: 9.38% [at 102 µM] | –
18 | COc1ccccc1NC(=O)CSc1nnc(-c2ccccn2)n1Cc1ccco1 | – | inconclusive: 50.1 µM [inhibitor, partial curve, poor fit]
19 | Brc1c(CSc2nc3ccccc3s2)nc2ncccn12 | – | inconclusive: 14.1 µM [inhibitor, single point]
20 | CCOc1ccc(C/C(O)=C2\C(=O)CC(C)(C)CC2=NCC(=O)O)cc1OCC | – | inconclusive: 89.1 µM [inhibitor, single point]
21 | Cc1ccc(NC(=O)C(Cc2ccccc2)NS(=O)(=O)c2cccc3nsnc23)c(C)c1 (stereo not given) | inactive: 1.46% | –
22 | CCN(CCCNC(=O)c1cc2cc3ccc(OC)cc3nc2s1)c1ccccc1 | – | inconclusive: 0.251 µM [inhibitor, full curve, poor fit]
23 | CCCc1cc(C(=O)Nc2ccc(CC)cc2)no1 | inactive: 6.44% [at 102 µM] | –
24 | COc1ccc(Cl)cc1NC(=S)Nc1cccc(C)c1 | inactive: -2.34% | –

Row | SMILES | activity, negative = inhibition | Potency
25 | Cc1ccc(NC(=O)CSc2nncs2)cc1Cl | – | inconclusive: 7.08 µM [inhibitor, single point]
26 | Cc1cc(C)c(C)c(OCCOCCN2CCN(C)CC2)c1 | – | inconclusive: 0.398 µM [inhibitor, full curve]
27 | COc1ccc(S(=O)(=O)N2Cc3ccccc3CC2C(=O)Nc2ccc(O)cc2)cc1OC (stereo not given) | – | inconclusive: 35.5 µM [inhibitor, single point]
28 | COc1ccc(CN(C(=O)c2ccccc2Br)C2CCS(=O)(=O)C2)cc1 (stereo not given) | – | inconclusive: 89.1 µM [inhibitor, single point]
29 | CC(=O)Nc1ccc(NC(=O)Cc2ccc(S(=O)(=O)N3CCCCC3)cc2)cc1 | – | active: 39.8 µM
30 | CCN(C(=O)CSc1ncn[nH]1)c1c(N)n(Cc2ccccc2)c(=O)[nH]c1=O | – | inconclusive: 44.7 µM [inhibitor, partial curve]
31 | O=C(Nn1cnnc1)c1ccc(F)c(S(=O)(=O)N2CCCCC2)c1 | – | inconclusive: 79.4 µM [inhibitor, single point]
32 | Cc1ccc(NC(=S)N(CCCN2CCCC2)Cc2cccn2Cc2ccc(Cl)cc2)cc1Cl | – | active: 31.6 µM
33 | C=CCN1C(=O)CSc2ccc(C(=O)NCc3ccco3)cc21 | – | active: 39.8 µM
34 | CCS(=O)(=O)N1CCc2cc(C(=O)Nc3cc(Cl)ccc3C)ccc21 | – | inconclusive: 15.8 µM [inhibitor, partial curve, poor fit]
35 | COc1ccccc1N1CCN(C/C=C/c2ccc(N(C)C)cc2)CC1 | – | inconclusive: 7.08 µM [inhibitor, partial curve, poor fit]
36 | Cc1cc(C=C2C(=O)CCCC2=O)c(C)n1-c1ccccc1 | – | active: 50.1 µM
37 | CCN1CCC(N(Cc2ccc3c(c2)OCO3)C(=O)Nc2ccc(Br)c(C)c2)CC1 | – | inconclusive: 11.2 µM [inhibitor, partial curve]
38 | O=P1(O)C=C(c2ccccc2)OC(c2ccccc2)=C1 | – | inconclusive: 3.16 µM [inhibitor, partial curve, poor fit]
39 | COc1ccccc1NC(=O)CC1Nc2ccccc2NC1=O (stereo not given) | – | inconclusive: 50.1 µM [inhibitor, partial curve, poor fit]
40 | C=C(C)COc1ccc(-c2n[nH]c(C)c2-c2ccc(OC)c(OC)c2)c(O)c1 | – | inconclusive: 79.4 µM [inhibitor, partial curve, poor fit]
41 | O=S(=O)(c1ccc(F)cc1)N1CCCNCC1 | – | inconclusive: 89.1 µM [inhibitor, single point]
42 | CCc1ccc(NC(=O)CN(CC(=O)Nc2ccc(CC)cc2)CC(C)O)cc1 (stereo not given) | inactive: -27% [at 2.33 µM] | –
43 | COc1ccc(C(=O)C(C)OC(=O)CCN2C(=O)C3CC=CCC3C2=O)cc1 (stereo not given) | – | active: 7.94 µM
44 | CCOC(=O)N1CCN(C(=O)CCS(=O)(=O)c2ccc3c(c2)CC(C)N3C(=O)CC)CC1 (stereo not given) | – | inconclusive: 89.1 µM [inhibitor, single point]
45 | O=S1(=O)c2ccccc2N=NN1Cc1cc(Cl)cc(Cl)c1 | – | inconclusive: 14.1 µM [inhibitor, partial curve, poor fit]
46 | Cc1ccc(N2CCN(C(=O)c3cn(C)c4ccc(S(=O)(=O)N(C)C5CCCCC5)cc4c3=O)CC2C)cc1 (stereo not given) | inactive: 8.35% | –
47 | O=C(C1=NNCC1c1ccc(Cl)cc1)C1CO1 (stereo not given) | – | inconclusive: 1.26 µM [inhibitor, partial curve, poor fit]
48 | Cc1ccc(CNc2ccc(S(=O)(=O)N3CCOCC3)cc2[N+](=O)[O-])cc1 | – | inconclusive: 25.1 µM [inhibitor, full curve, poor fit]

Row | SMILES | activity, negative = inhibition | Potency
49 | CC1(C)Cc2nc(NCCN3CCOCC3)c(C#N)cc2CO1 | – | inconclusive: 22.4 µM [inhibitor, single point]
50 | Cc1ccc(C(=O)Nc2nc(-c3cc(Cl)sc3Cl)cs2)cc1 | – | inconclusive: 28.2 µM [inhibitor, single point]
51 | CCN(CC)c1ccc(NC(=O)CSc2nc(C)cc(=O)[nH]2)cc1 | – | inconclusive: 89.1 µM [inhibitor, single point]
52 | CC1CCN(CCCn2c(=S)[nH]c3c(sc4ccc([N+](=O)[O-])cc43)c2=O)CC1 | – | active: 39.8 µM
53 | Cc1ccc(NCC(=O)N/N=C/c2cccc(Oc3ccccc3)c2)cc1 | – | inconclusive: 39.8 µM [inhibitor, full curve, poor fit]
54 | CCOCCCNS(=O)(=O)c1ccc2c(c1)CCN2C(=O)CC | inactive: 37.7% [at 12.7 µM] | –
55 | CCn1c(=O)n(CC)c2cc(N3CCCCC3)c(NC(=O)Nc3cc(Cl)ccc3OC)cc21 | – | inconclusive: 10 µM [inhibitor, partial curve, poor fit]
56 | c1ccc(-n2ncc3c(NCCN4CCOCC4)ncnc32)cc1 | inactive: 10.4% [at 102 µM] | –
57 | O=C(c1cccs1)N1CCCc2cc(NS(=O)(=O)c3ccc(F)cc3)ccc21 | inactive: 7.29% | –
58 | COCCCNC(=O)CCc1c(C)nc2cc(-c3ccc(Cl)cc3)nn2c1C | inactive: -5.96% | –
59 | O=C1c2cc(O)c(O)cc2S(=O)(=O)C1c1ccccc1 (stereo not given) | inconclusive: -135% [inhibitor] [at 2.33 µM] | –
60 | CCOc1ccc(NS(=O)(=O)c2ccc(NC(=O)N3CCCC3)cc2)cc1 | inactive: 8.58% | –
61 | CC(C)=CCN1CCN(CCC2=C(C)CCCC2(C)C)CC1CCO (stereo not given) | inactive: -5.22% [at 102 µM] | –
62 | O=C(O)C1OC(C(=O)O)C2C1C(F)(F)C2(F)F (stereo not given) | – | active: 39.8 µM
63 | Cc1nn(CC(=O)Nc2ccc(C(=O)N3CCCCC3)cc2)c(=O)c2ccccc12 | – | inconclusive: 50.1 µM [inhibitor, single point]
64 | CCOC(=O)/C(C)=C1\NC(C)(C)Cc2ccccc21 | – | active: 2.51 µM
65 | COc1ccccc1NC(=O)COC(=O)CCc1ccc(S(=O)(=O)N2CCOCC2)cc1 | inactive: 20.9% [at 2.33 µM] | –
66 | O=C(c1ccc(CS(=O)c2cccc(Cl)c2)o1)N1CCN(C2CCCCC2)CC1 (stereo not given) | – | inconclusive: 79.4 µM [inhibitor, single point]
67 | CCOc1ccc(C(=O)N2CCN(Cc3cc(=O)n4nc(-c5ccccc5Cl)sc4n3)CC2)cc1 | inactive: 1.21% | –
68 | COc1ccc(N(C(C)=O)S(=O)(=O)c2cc(OC)ccc2OC)cc1 | inactive: -6.6% [at 12.7 µM] | –
69 | O=C(Nc1ccc2nn(-c3ccccc3)nc2c1)c1ccc(-c2cccc(Cl)c2)o1 | – | active: 14.1 µM
70 | Cc1ccc(-n2ncc3c(Nc4c(C)n(C)n(-c5ccccc5)c4=O)ncnc32)c(C)c1 | – | inconclusive: 56.2 µM [inhibitor, partial curve, poor fit]
